Results are given in words; binding and its absence hold for the method and conditions named. For some assays here: Binding seen in cells or lysates may run through a third protein. Some entries that bind do so weakly or less than the wild type. For some assays here: Where a sequence is shown, tags or fusion partners need not be part of it.

Protein sequences, listed by entry. Tags and fused reporters are not part of them.
UniProt P35222: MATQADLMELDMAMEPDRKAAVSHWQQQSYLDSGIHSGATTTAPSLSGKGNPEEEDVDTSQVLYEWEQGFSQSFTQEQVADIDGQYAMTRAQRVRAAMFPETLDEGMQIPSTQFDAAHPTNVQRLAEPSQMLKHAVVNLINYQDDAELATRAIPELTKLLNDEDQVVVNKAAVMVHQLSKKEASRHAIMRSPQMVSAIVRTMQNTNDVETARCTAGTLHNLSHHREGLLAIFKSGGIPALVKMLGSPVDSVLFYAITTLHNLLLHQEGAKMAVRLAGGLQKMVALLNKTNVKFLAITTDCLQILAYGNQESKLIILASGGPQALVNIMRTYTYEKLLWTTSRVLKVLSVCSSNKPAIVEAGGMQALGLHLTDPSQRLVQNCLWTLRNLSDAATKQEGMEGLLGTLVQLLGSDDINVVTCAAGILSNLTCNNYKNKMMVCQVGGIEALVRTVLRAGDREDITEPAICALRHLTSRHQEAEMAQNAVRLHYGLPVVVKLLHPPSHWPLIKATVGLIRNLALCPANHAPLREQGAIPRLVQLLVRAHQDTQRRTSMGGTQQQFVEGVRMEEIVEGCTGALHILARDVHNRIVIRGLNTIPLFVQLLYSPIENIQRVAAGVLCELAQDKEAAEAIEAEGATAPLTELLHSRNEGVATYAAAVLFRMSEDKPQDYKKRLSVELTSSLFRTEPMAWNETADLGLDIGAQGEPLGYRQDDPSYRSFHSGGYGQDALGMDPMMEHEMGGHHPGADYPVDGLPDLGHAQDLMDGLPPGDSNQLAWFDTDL

The target in assay [1] is T1, GST-TR4-FL (UniProt P49116).
T1 sequence: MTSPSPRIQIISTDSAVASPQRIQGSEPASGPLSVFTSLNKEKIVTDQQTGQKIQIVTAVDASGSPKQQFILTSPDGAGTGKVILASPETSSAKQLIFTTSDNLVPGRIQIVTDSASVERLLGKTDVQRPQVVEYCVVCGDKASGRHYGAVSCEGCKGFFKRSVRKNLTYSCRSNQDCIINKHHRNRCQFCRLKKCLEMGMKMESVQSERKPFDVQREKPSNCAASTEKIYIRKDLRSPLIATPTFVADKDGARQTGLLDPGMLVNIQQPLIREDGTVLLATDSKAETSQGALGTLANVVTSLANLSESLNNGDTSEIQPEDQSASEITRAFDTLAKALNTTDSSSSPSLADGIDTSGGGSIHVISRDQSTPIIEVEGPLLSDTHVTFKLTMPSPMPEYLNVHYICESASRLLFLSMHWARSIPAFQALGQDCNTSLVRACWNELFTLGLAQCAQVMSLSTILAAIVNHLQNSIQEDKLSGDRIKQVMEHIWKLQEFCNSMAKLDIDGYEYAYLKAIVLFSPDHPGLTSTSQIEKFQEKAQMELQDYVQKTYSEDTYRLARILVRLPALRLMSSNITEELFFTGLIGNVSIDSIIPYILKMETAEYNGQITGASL
The assay is described as follows: pull-down; purified GST fusion protein on glutathione-Sepharose-4B beads incubated 12 h at 4 °C with 5 μL of in vitro translated ^35S-labeled protein in GST binding buffer (50 mM HEPES pH 7.6, 50 mM NaCl, 0.1% Nonidet P-40, 5 mM EDTA, 10% glycerol); washes with 500 mM NaCl; SDS-PAGE and autoradiography; only the target purified.

A further assay deals with T2, GST-TR4-LBD [aa 224–615] (UniProt P49116).
T2 sequence: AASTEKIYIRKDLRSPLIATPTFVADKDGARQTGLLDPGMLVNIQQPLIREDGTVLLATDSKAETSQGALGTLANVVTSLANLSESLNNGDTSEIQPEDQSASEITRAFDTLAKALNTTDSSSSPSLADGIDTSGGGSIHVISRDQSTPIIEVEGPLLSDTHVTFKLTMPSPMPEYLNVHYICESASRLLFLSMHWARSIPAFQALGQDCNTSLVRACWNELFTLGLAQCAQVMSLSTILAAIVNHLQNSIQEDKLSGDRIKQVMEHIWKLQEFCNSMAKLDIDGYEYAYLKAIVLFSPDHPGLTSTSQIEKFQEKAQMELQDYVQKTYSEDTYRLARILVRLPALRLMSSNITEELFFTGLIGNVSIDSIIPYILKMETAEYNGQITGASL
The assay is described as above.

The target of the next assay is T3, GST-TR4-N [aa 1–125] (UniProt P49116).
T3 sequence: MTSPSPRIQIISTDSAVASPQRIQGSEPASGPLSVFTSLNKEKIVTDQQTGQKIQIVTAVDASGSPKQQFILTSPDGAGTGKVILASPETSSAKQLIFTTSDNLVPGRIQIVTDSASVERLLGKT
The description is as above.

The next assay concerns the target T4, GST-TR4-∆C [aa 1–348] (UniProt P49116).
T4 sequence: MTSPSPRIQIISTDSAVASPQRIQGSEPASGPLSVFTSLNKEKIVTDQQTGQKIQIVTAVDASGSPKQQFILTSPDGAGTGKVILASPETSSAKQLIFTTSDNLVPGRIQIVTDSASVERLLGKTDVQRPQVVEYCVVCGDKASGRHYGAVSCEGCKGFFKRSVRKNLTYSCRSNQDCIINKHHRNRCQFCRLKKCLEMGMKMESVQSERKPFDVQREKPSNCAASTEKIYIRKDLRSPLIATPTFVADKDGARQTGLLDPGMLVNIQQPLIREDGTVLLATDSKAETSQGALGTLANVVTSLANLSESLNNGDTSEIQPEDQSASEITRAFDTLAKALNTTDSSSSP
The description is as above.

Assay [2] has as its target T1, GST-TR4-FL. Kind of assay: pull-down; GST pull-down of in vitro translated ^35S-labeled protein by purified GST-TR4 on beads, in the absence or presence of a non-radiolabeled in vitro translated competitor (TR4, Slug or Slug-2); only the target purified.
The next assay addresses T5, GST-Slug-2 (mouse) (UniProt P97469).
T5 sequence: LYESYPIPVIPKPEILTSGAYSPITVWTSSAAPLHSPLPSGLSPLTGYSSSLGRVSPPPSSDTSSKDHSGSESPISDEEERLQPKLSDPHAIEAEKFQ
Kind of assay: pull-down; purified GST fusion protein on glutathione-Sepharose-4B beads incubated 12 h at 4 °C with 5 μL of in vitro translated ^35S-labeled protein in GST binding buffer (50 mM HEPES pH 7.6, 50 mM NaCl, 0.1% Nonidet P-40, 5 mM EDTA, 10% glycerol); washes with 500 mM NaCl; SDS-PAGE and autoradiography; only the target purified.

Assay [3] deals with T6, GAL4-Slug-2 (aa 33–130) (mouse) (UniProt P97469).
T6 sequence: T5 sequence
The assay is described as follows: two-hybrid; mammalian two-hybrid in HEK293T cells: pG5-Luc co-transfected with Gal4-Slug constructs and VP16-TR4; luciferase read-out.

Assay [4] has as its target T7, GAL4-Slug-ΔDBD (aa 131–269) (mouse) (UniProt P97469).
T7 sequence: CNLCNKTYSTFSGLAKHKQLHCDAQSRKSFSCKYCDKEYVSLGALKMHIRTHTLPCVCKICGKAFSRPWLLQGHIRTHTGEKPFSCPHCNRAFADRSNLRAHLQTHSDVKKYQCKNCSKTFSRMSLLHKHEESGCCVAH
The description is as above.

In assay [5] the target is T8, GAL4-Slug-ΔDBD (aa 1–130) (mouse) (UniProt P97469).
T8 sequence: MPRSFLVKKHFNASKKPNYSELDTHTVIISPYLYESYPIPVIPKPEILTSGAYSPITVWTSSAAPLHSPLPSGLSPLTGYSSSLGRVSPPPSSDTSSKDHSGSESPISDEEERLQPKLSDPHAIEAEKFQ
The assay is described as above.

For assay [6], the target named is T9, GAL4-Slug-ΔSNAG (aa 33–269) (mouse) (UniProt P97469).
T9 sequence: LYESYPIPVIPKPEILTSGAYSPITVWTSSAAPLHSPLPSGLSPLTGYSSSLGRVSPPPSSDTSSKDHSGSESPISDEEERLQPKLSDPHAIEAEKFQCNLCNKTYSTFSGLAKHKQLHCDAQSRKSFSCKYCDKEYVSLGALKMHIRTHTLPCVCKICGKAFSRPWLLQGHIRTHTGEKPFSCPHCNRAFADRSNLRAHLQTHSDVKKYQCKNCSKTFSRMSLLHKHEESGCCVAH
Described as above.

Consider “^35S-labeled β-catenin (from UniProt P35222 1-781)”, for which the binding entry with GST-TR4-FL [1], with GST-TR4-LBD [aa 224–615], with GST-TR4-N [aa 1–125] and with GST-TR4-∆C [aa 1–348] was “no binding” each time.

B1: in vitro translated TR4 (receptor, UniProt P49116-2 1-615)
chain: T1 sequence
modifications: ^35S label (non-radiolabeled where used as competitor)
B1: the binding entry with GST-TR4-FL [2] and with GST-Slug-2 (mouse) was “binds” throughout.

B2: VP16-TR4 (receptor, UniProt P49116-2 1-615)
chain: T1 sequence
As to B2, the binding result in [3] is listed as “binds”; in assay [4], “no binding”; in assay [5], “binds”; in assay [6], “binds”.

B3: in vitro translated Slug-2 (domain or fragment, UniProt P97469 33-130)
chain: T5 sequence
On to B3, for which the binding result with GST-TR4-FL [2] is listed as “binds”.

For the origin of these results see PMC7559981.
